Results as given in publication PMC4336329 (PLoS ONE, 2015).
About 14,000 (4.5%) of roughly 310,000 compounds showed an effect of 50% or more. Effects have a minus sign here. The list shows a part of the results.

The compounds below were run against human ether-à-go-go-related gene (hERG) potassium channel (human, UniProt Q12809) (assay: primary screen, population patch clamp on CHO cells stably expressing hERG).
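Also: peak tail current of the secondary pulse compared with the same well before compound.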

human ether-à-go-go-related gene (hERG) potassium channel, sequence (Q12809 whole entry, looked up): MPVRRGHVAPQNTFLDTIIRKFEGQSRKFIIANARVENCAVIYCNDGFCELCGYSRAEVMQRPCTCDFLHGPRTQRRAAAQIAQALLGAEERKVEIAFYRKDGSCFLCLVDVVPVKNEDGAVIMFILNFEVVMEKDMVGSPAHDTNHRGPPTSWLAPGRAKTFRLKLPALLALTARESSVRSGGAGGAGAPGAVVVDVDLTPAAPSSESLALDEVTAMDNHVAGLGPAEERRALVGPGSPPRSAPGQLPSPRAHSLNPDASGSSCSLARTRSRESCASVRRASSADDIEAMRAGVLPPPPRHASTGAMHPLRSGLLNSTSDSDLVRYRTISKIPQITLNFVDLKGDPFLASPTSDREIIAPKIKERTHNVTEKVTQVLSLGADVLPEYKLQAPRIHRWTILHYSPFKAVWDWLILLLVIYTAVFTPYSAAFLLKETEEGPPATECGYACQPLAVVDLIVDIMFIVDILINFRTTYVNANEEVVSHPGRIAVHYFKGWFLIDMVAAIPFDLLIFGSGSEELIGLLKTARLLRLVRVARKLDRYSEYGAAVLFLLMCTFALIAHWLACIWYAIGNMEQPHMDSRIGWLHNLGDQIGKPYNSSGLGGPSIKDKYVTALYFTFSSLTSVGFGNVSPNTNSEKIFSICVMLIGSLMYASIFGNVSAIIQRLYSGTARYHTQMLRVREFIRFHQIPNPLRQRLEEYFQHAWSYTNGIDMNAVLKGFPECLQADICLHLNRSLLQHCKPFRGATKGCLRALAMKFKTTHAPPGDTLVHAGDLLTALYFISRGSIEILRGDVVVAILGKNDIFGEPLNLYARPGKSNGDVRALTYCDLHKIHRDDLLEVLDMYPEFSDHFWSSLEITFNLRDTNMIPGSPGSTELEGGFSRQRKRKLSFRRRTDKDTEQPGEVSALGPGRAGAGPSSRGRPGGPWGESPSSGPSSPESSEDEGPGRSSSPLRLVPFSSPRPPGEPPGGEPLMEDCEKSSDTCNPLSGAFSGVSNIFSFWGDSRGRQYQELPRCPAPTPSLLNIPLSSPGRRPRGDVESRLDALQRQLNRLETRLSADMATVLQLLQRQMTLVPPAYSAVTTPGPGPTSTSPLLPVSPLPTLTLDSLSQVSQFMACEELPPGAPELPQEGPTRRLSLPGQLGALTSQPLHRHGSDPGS

Row | Compound | hERG current change (%, negative = inhibition) at 10uM [%]
1 | COc1ccc(N2C(=O)NC(=O)/C(=C\c3cn(CC(=O)N4CCOCC4)c4ccccc34)C2=O)c(OC)c1 | 2.01
2 | CC(NCc1ccccc1Cl)C(=O)Nc1ccc(S(=O)(=O)N2CCCC2)cc1 (stereo not drawn) | -0.602
3 | CC1(CCc2ccccc2)NC(=O)N(Cc2cc([N+](=O)[O-])cc3c2OCOC3)C1=O (stereo not drawn) | 2.92
4 | O=C(Cc1ccccc1)n1nc(-c2ccco2)nc1SCc1ccccc1 | -0.242
5 | CN(C)S(=O)(=O)N1C(=O)c2ccccc2C1=O | 35.3
6 | O=C(CN1C(=O)c2ccccc2C1=O)Nc1ccccc1C(F)(F)F | 0.726
7 | Cc1cccc(-n2ncc3c(=O)[nH]c(SCC(=O)NCCC4=CCCCC4)nc32)c1 | 10.9
8 | COCc1cc(C)nc(SCc2ccc(Cl)cc2)c1C#N | -8.83
9 | COc1ccc(N2Cc3cccc(C(=O)O)c3C2=O)cc1 | -1.27
10 | O=C(/C=C/c1ccccc1)Nc1cc(NC(=O)/C=C/c2ccccc2)cc(C(=O)O)c1 | 21.4
11 | C[C@@H](OC(=O)N1CCCCC1)[C@H]1O[C@]2(C)CCCC[C@H]1O2 | 15.8
12 | COc1ccc(-n2cc(CNCc3cccnc3)c(-c3cccc(F)c3)n2)cc1 | -47.7
13 | CCOC(=O)C1=C(CN2CCSCC2)NC(=O)NC1c1cccc([N+](=O)[O-])c1 (stereo not drawn) | -10.7
14 | c1cncc(-c2nnc(-c3cccnc3)nn2)c1 | 2.41
15 | CCCCNC(=O)Cc1coc2ccc3ccccc3c12 | -12.6
16 | O=C(NCc1ccc2c(c1)OCO2)c1c(O)c2cccc3c2n(c1=O)CCC3 | 14.3
17 | O=C(OCc1nnc(-c2ccccc2)o1)c1ccc(S(=O)(=O)NCc2ccco2)cc1 | -0.314
18 | c1ccc(-c2ncc3c(ccc4ccccc43)n2)cc1 | 2
19 | O=C(c1cccs1)N1CCN(Cc2ccccc2)CC1 | -12.2

Row | Compound | hERG current change (%, negative = inhibition) at 10uM [%]
20 | O=c1cc(-c2cccc(Br)c2)oc2cccc(O)c12 | 22.6
21 | C#CCOC(=O)C(NC(=O)c1ccccc1)=C1CCCCC1 | -13.7
22 | O=C(Nc1nc2ccccc2[nH]1)NC1CCCCC1 | 16.5
23 | COc1cccc(NC(=O)Nc2nnc(Cc3ccc(OC)c(OC)c3)s2)c1 | 20.6
24 | COc1ccc(OC)c(C2C(C(=O)c3ccc(C)o3)=C(O)C(=O)N2CCCN2CCOCC2)c1 (stereo not drawn) | 1.84
25 | C/C=C(\C)C(=O)O[C@H](c1cc2ccc(=O)oc2cc1OC)[C@@H](O)C(C)(C)O | 4.56
26 | O=C1NC(=O)N(Cc2ccccc2)C(=O)/C1=C/C=C/c1ccco1 | -2.14
27 | COCc1cc(=O)n2[nH]c(C)c(-c3ccccc3)c2n1 | 12.3
28 | Cl.OCCCCNCc1cc(Br)ccc1OCc1ccccc1F | -24.7
29 | Cn1nccc1C(=O)Nc1nnc(C2CC2)s1 | 2.07
30 | NNc1ccc(Cl)c(C(=O)O)c1 | 5.85
31 | CCn1c(SCC(=O)N2CCC(C)CC2)nc2c1c(=O)n(C)c(=O)n2C | -1.22
32 | COC(=O)c1ccc(OC)c(CSc2nnc(COc3ccccc3)o2)c1 | -17.7
33 | c1ccc(Cc2nnc3n2CCCCC3)cc1 | 13.1
34 | Cc1cc(C)c2nc(NNC(=O)c3cc(-c4cccs4)nc4ccccc34)sc2c1 | 18.3
35 | CCN(CC(=O)Nc1c(F)cccc1F)C(=O)c1ccc(Sc2nncn2C)c([N+](=O)[O-])c1 | 29.7
36 | Cc1ccc(/C=C2\C(=O)NC(=O)N2C)o1 | 5.55
37 | CCc1ccc(NC(=O)CSc2nc3cc(C(=O)OC)ccc3c(=O)n2Cc2ccco2)cc1 | -3.32
38 | COc1ccc(-n2ccn3c(CCC(=O)N4CCN(c5cccc(C)c5C)CC4)nnc3c2=O)cc1 | 4.37

Row | Compound | hERG current change (%, negative = inhibition) at 10uM [%]
39 | Cc1cc(C)c(OCCCCCNCCO)c(C)c1 | -5.77
40 | COc1ccc2cc(CN(CC3CCCO3)S(=O)(=O)c3ccccc3Cl)c(=O)[nH]c2c1 (stereo not drawn) | -36.7
41 | CC(=O)c1cnc2ncnn2c1C | 7.67
42 | COc1ccc(OC)c(S(=O)(=O)N2CCN(c3c(C)cccc3C)CC2)c1 | -2.72
43 | CC(NCC(=O)NCCc1ccc(S(N)(=O)=O)cc1)c1ccc(F)cc1 (stereo not drawn) | 13.4
44 | COc1ccccc1N1CCN(C(=O)CCC(=O)Nc2nnc(CC(C)C)s2)CC1 | -14.2
45 | CS(=O)(=O)c1cnc(-c2ccccc2)nc1Oc1ccc(Cl)cc1 | 3.63
46 | O=C(Nc1cccc(C(F)(F)F)c1)n1cc(-c2ccccn2)c(N2CCOCC2)n1 | 12
47 | Cn1nc(C(C)(C)C)c(NC(=O)c2cccs2)c1C(C)(C)C | 8.76
48 | O=C(Nc1ccn(C2CC(OC(=O)c3ccccc3)C(CO)O2)c(=O)n1)c1ccccc1 (stereo not drawn) | 5.48
49 | CCSc1nsc(NC(=O)Nc2cccc(F)c2)n1 | 24.1
50 | COc1ccc(N(CC(=O)NC2CCCC2)C(=O)c2csnn2)cc1 | -13
51 | COc1ccc(CNC(=O)c2c(C)nc3ccccn23)cc1 | -12.1
52 | O=C(OCC(=O)c1ccccc1Br)c1ccncc1 | 14.4
53 | Cc1ccccc1C(=O)NC(=S)Nc1ccc(N2CCN(C(=O)c3ccccc3)CC2)cc1 | 13.8
54 | Cc1cccc(N/N=C/c2c(O)[nH]c(=S)[nH]c2=O)c1 | 10.3
55 | CCn1c(CNC(=O)c2ccccc2Br)nnc1SCC(=O)Nc1nncs1 | 3.2
56 | CCCCNC(=O)COC(=O)c1ccccc1F | 0.511
57 | N#C/C(=C(/O)c1cc2ccccc2o1)c1nc2ccccc2s1 | 8.03
